In article PMC9911399, “Two distinct binding modes provide the RNA-binding protein RbFox with extraordinary sequence specificity”:
Residue numbers refer to the chain shown, from its start. This is one part of the list.

B1: CUGGUGC (DNA:RNA)
RNA: GGGAGACCGGAAUUCAGAUUGUCCCUGGUGCUUAAAUCCCGUCGUAGCCACCA
DNA 1: CAATCTGAATTCCGGTCTCCC
DNA 2: TGGTGGCTACGACGGGATT
B2: GAUUUCC (DNA:RNA)
RNA: B1 RNA with C25G, U26A, G27U, G28U, G30C
DNA 1: CAATCTGAATTCCGGTCTCCC
DNA 2: TGGTGGCTACGACGGGATT
B3: GGGGAGU (DNA:RNA)
RNA: B1 RNA with C25G, U26G, U29A, C31U
DNA 1: CAATCTGAATTCCGGTCTCCC
DNA 2: TGGTGGCTACGACGGGATT
B4: GGGCGCU (DNA:RNA)
RNA: B1 RNA with C25G, U26G, G28C, U29G, G30C, C31U
DNA 1: CAATCTGAATTCCGGTCTCCC
DNA 2: TGGTGGCTACGACGGGATT
B5: CCACCCA (DNA:RNA)
RNA: B1 RNA with U26C, G27A, G28C, U29C, G30C, C31A
DNA 1: CAATCTGAATTCCGGTCTCCC
DNA 2: TGGTGGCTACGACGGGATT
B6: CCUCGAG (DNA:RNA)
RNA: B1 RNA with U26C, G27U, G28C, U29G, G30A, C31G
DNA 1: CAATCTGAATTCCGGTCTCCC
DNA 2: TGGTGGCTACGACGGGATT
B7: CUCAGUC (DNA:RNA)
RNA: B1 RNA with G27C, G28A, U29G, G30U
DNA 1: CAATCTGAATTCCGGTCTCCC
DNA 2: TGGTGGCTACGACGGGATT
B8: UGGCAGA (DNA:RNA)
RNA: B1 RNA with C25U, U26G, G28C, U29A, C31A
DNA 1: CAATCTGAATTCCGGTCTCCC
DNA 2: TGGTGGCTACGACGGGATT
B9: CUGUAGA (DNA:RNA)
RNA: B1 RNA with G28U, U29A, C31A
DNA 1: CAATCTGAATTCCGGTCTCCC
DNA 2: TGGTGGCTACGACGGGATT
B10: GGCCCAC (DNA:RNA)
RNA: B1 RNA with C25G, U26G, G27C, G28C, U29C, G30A
DNA 1: CAATCTGAATTCCGGTCTCCC
DNA 2: TGGTGGCTACGACGGGATT
B11: UGUGAGU (DNA:RNA)
RNA: B1 RNA with C25U, U26G, G27U, U29A, C31U
DNA 1: CAATCTGAATTCCGGTCTCCC
DNA 2: TGGTGGCTACGACGGGATT
B12: CUGUGAU (DNA:RNA)
RNA: B1 RNA with G28U, U29G, G30A, C31U
DNA 1: CAATCTGAATTCCGGTCTCCC
DNA 2: TGGTGGCTACGACGGGATT
B13: UACGAUA (DNA:RNA)
RNA: B1 RNA with C25U, U26A, G27C, U29A, G30U, C31A
DNA 1: CAATCTGAATTCCGGTCTCCC
DNA 2: TGGTGGCTACGACGGGATT
B14: ACAAAGC (DNA:RNA)
RNA: B1 RNA with C25A, U26C, G27A, G28A, U29A
DNA 1: CAATCTGAATTCCGGTCTCCC
DNA 2: TGGTGGCTACGACGGGATT
B15: UUGCUCG (DNA:RNA)
RNA: B1 RNA with C25U, G28C, G30C, C31G
DNA 1: CAATCTGAATTCCGGTCTCCC
DNA 2: TGGTGGCTACGACGGGATT
B16: AAUGUCG (DNA:RNA)
RNA: B1 RNA with C25A, U26A, G27U, G30C, C31G
DNA 1: CAATCTGAATTCCGGTCTCCC
DNA 2: TGGTGGCTACGACGGGATT
B17: UCUCGUC (DNA:RNA)
RNA: B1 RNA with C25U, U26C, G27U, G28C, U29G, G30U
DNA 1: CAATCTGAATTCCGGTCTCCC
DNA 2: TGGTGGCTACGACGGGATT
B18: CAGUGGC (DNA:RNA)
RNA: B1 RNA with U26A, G28U, U29G
DNA 1: CAATCTGAATTCCGGTCTCCC
DNA 2: TGGTGGCTACGACGGGATT
B19: AAUCGUU (DNA:RNA)
RNA: GGGAGACCGGAAUUCAGAUUGUCCAAUCGUUUUAAAUCCCGUCGUAGCCACCA
DNA 1: CAATCTGAATTCCGGTCTCCC
DNA 2: TGGTGGCTACGACGGGATT
B20: ACGAGGA (DNA:RNA)
RNA: B19 RNA with A26C, U27G, C28A, U30G, U31A
DNA 1: CAATCTGAATTCCGGTCTCCC
DNA 2: TGGTGGCTACGACGGGATT
B21: CGAAUAC (DNA:RNA)
RNA: B1 RNA with U26G, G27A, G28A, G30A
DNA 1: CAATCTGAATTCCGGTCTCCC
DNA 2: TGGTGGCTACGACGGGATT
B22: GCUAGAA (DNA:RNA)
RNA: B19 RNA with A25G, A26C, C28A, U30A, U31A
DNA 1: CAATCTGAATTCCGGTCTCCC
DNA 2: TGGTGGCTACGACGGGATT
B23: UUUGUGU (DNA:RNA)
RNA: B1 RNA with C25U, G27U, C31U
DNA 1: CAATCTGAATTCCGGTCTCCC
DNA 2: TGGTGGCTACGACGGGATT
B24: GGGACUA (DNA:RNA)
RNA: B19 RNA with A25G, A26G, U27G, C28A, G29C, U31A
DNA 1: CAATCTGAATTCCGGTCTCCC
DNA 2: TGGTGGCTACGACGGGATT
B25: GCCUGAC (DNA:RNA)
RNA: B19 RNA with A25G, A26C, U27C, C28U, U30A, U31C
DNA 1: CAATCTGAATTCCGGTCTCCC
DNA 2: TGGTGGCTACGACGGGATT
B26: GUCAAUG (DNA:RNA)
RNA: B19 RNA with A25G, A26U, U27C, C28A, G29A, U31G
DNA 1: CAATCTGAATTCCGGTCTCCC
DNA 2: TGGTGGCTACGACGGGATT
B27: GUGCAUU (DNA:RNA)
RNA: B19 RNA with A25G, A26U, U27G, G29A
DNA 1: CAATCTGAATTCCGGTCTCCC
DNA 2: TGGTGGCTACGACGGGATT
B28: UCAGGCG (DNA:RNA)
RNA: B19 RNA with A25U, A26C, U27A, C28G, U30C, U31G
DNA 1: CAATCTGAATTCCGGTCTCCC
DNA 2: TGGTGGCTACGACGGGATT
B29: AGGUCAA (DNA:RNA)
RNA: B19 RNA with A26G, U27G, C28U, G29C, U30A, U31A
DNA 1: CAATCTGAATTCCGGTCTCCC
DNA 2: TGGTGGCTACGACGGGATT
B30: UGCAGUG (DNA:RNA)
RNA: B19 RNA with A25U, A26G, U27C, C28A, U31G
DNA 1: CAATCTGAATTCCGGTCTCCC
DNA 2: TGGTGGCTACGACGGGATT
B31: CUCGUUU (DNA:RNA)
RNA: B1 RNA with G27C, G30U, C31U
DNA 1: CAATCTGAATTCCGGTCTCCC
DNA 2: TGGTGGCTACGACGGGATT

biological target: T1, RBFOX1 RRM RbFoxmut (Fox-RRM*) (Homo sapiens, UniProt Q9NWB1 109-208, R118D;E147R;N151S;E152T); test: EMSA; HiTS-Eq, 1 nM pool, 10 min; buffer printed only for the single-RNA assays: 10 mM Tris pH 7.5, 150 mM NaCl, 3.4 mM EDTA, 0.001% NP-40, 30 C; conditions: tags: His6 N-terminal (pET28a); label: 5' 32P
T1 sequence: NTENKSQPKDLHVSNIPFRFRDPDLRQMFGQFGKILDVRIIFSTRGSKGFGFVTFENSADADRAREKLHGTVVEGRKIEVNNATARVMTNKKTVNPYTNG
Summary of the method: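 A pool of RNA with 7 randomized nucleotides, 5′-radiolabelled and with DNA-annealed flanks, was equilibrated at 1 nM for 10 min in 50 µL with purified RbFox RRM, wild type or mutant, across increasing protein concentrations. Free RNA was separated by 8% native PAGE, excised, reverse-transcribed, barcoded by PCR and sequenced. Relative association constants were obtained from read-count changes of each RNA species versus the control reaction and normalised to the cognate motif.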

Binder	binding signal
B1	0.0874 KA relative to UGCAUGU
B2	0.0366 KA relative to UGCAUGU
B3	0.12 KA relative to UGCAUGU
B4	0.0836 KA relative to UGCAUGU
B5	0.0929 KA relative to UGCAUGU
B6	0.108 KA relative to UGCAUGU
B7	0.0711 KA relative to UGCAUGU
B8	0.0918 KA relative to UGCAUGU
B9	0.148 KA relative to UGCAUGU
B10	0.0736 KA relative to UGCAUGU
B11	0.17 KA relative to UGCAUGU
B12	0.0941 KA relative to UGCAUGU
B13	0.123 KA relative to UGCAUGU
B14	0.1 KA relative to UGCAUGU
B15	0.275 KA relative to UGCAUGU
B16	0.0939 KA relative to UGCAUGU

Binder	binding signal
B17	0.131 KA relative to UGCAUGU
B18	0.0904 KA relative to UGCAUGU
B19	0.0641 KA relative to UGCAUGU
B20	0.0677 KA relative to UGCAUGU
B21	0.133 KA relative to UGCAUGU
B22	0.117 KA relative to UGCAUGU
B23	0.182 KA relative to UGCAUGU
B24	0.0812 KA relative to UGCAUGU
B25	0.0912 KA relative to UGCAUGU
B26	0.111 KA relative to UGCAUGU
B27	0.108 KA relative to UGCAUGU
B28	0.128 KA relative to UGCAUGU
B29	0.0898 KA relative to UGCAUGU
B30	0.19 KA relative to UGCAUGU
B31	0.122 KA relative to UGCAUGU
